16 molecules from the supplement of paper PMC5919970 can be followed below.

In all, about 2,000 compounds were measured (“fractional viability relative to vehicle”: median about 0.91, lowest 2% from about 0.045 on). Some of the results follow.

For the experiment, the system named is TYKNU. Description: fractional viability relative to vehicle; TYKNU is a high-grade serous ovarian cancer line; higher = less growth inhibition. To be noted: 72 h. A digest of the protocol: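 TYKNU control cells or lentiCRISPRv2 knockout derivatives were seeded at 500 cells per well into drug-stamped 384-well plates holding a ~2100-compound library at 2 or 10 μM, in duplicate. Cells were grown at 37 °C in 5% CO2 in RPMI 1640 with 10% FBS, and drug treatment lasted 72 h. Viability was read by Cell Titer Glo luminescence. Duplicate treatment wells were averaged and normalised to duplicate control wells from the same plate position.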

The mark [1] stands for this setting: 2uM, genotype: DNM1L knockout (sgDNM1L #1).
Setting [2] is: 2uM, genotype: sgCTRLA1 (non-targeting control).
The mark [3] stands for this setting: 10uM, genotype: DNM1L knockout (sgDNM1L #1).
[4] abbreviates: 10uM, genotype: sgCTRLA1 (non-targeting control).

For `O=C(CCCN1CCN(c2ccccn2)CC1)c1ccc(F)cc1` [Azaperone], the fractional viability is 0.96 under setting [1], 1.13 under setting [2], 1.01 under setting [3] and 1.12 under setting [4].

On to `O=C(Nc1ccncc1)c1cc([N+](=O)[O-])ccc1Cl`, for which the fractional viability is, setting by setting: under setting [1], 1.03; under setting [2], 1.13; under setting [3], 0.743; under setting [4], 0.889.

Take `C[C@]12CC[C@@H]3c4ccc(OC(=O)c5ccccc5)cc4CC[C@H]3[C@@H]1CC[C@@H]2O` [Estradiol Benzoate]: the fractional viability under setting [1] was found to be 0.97, the fractional viability under setting [2] turned out to be 0.973, the fractional viability under setting [3] was found to be 0.58 and the fractional viability under setting [4] was determined as 0.621.

For the molecule `Cc1ccc(F)c(NC(=O)Nc2ccc(-c3cccc4[nH]nc(N)c34)cc2)c1` [Linifanib (ABT-869)], the fractional viability reads like this: under setting [1], 1.25; under setting [2], 1.09; under setting [3], 0.339; under setting [4], 0.324.

For the molecule `CN1CCN(C(c2ccccc2)c2ccccc2)CC1` [Cyclizine 2HCl], the fractional viability by setting is: under setting [1], 0.914; under setting [2], 1.17; under setting [3], 0.803; under setting [4], 0.991.

As to `CC(C)OC(=O)C1=CN(C(=O)c2ccc(F)c(F)c2)CC(C)(C)c2c1[nH]c1ccccc21`, the fractional viability was found to be 0.991 under setting [1], 1.05 under setting [2], 0.865 under setting [3] and 0.965 under setting [4].

Take `O=C(/C=C\n1cnc(-c2cc(C(F)(F)F)cc(C(F)(F)F)c2)n1)N1CC(F)(F)C1`: the fractional viability by setting is: under setting [1], 0.0907; under setting [2], 0.125; under setting [3], 0.0786; under setting [4], 0.0883.

In the case of `CC(C)(C)[N+]([O-])=Cc1ccc(S(=O)(=O)O)cc1S(=O)(=O)O`, the fractional viability by setting is: under setting [1], 0.858; under setting [2], 1.09; under setting [3], 0.683; under setting [4], 0.989.

As for `OCCN(CCO)c1nc(N2CCCCC2)c2nc(N(CCO)CCO)nc(N3CCCCC3)c2n1` [Dipyridamole], the fractional viability by setting is: under setting [1], 0.84; under setting [2], 1.27; under setting [3], 0.779; under setting [4], 0.978.

In the case of `Cc1ccc(NC(=O)c2cccc(C(C)(C)C#N)c2)cc1Nc1ccc2ncn(C)c(=O)c2c1`, the fractional viability turned out to be 0.244 under setting [1], 0.283 under setting [2], 0.27 under setting [3] and 0.31 under setting [4].

On to `CC[C@H](CO)Nc1nc(NCc2ccccc2)c2ncn(C(C)C)c2n1` [Roscovitine (Seliciclib,CYC202)], for which the fractional viability turned out to be 1.06 under setting [1], 1.15 under setting [2], 0.768 under setting [3] and 1.01 under setting [4].

As to `CC[C@@H](C)Nc1cc(C(=O)N[C@H]2C[C@H]3CC[C@@H](C2)N3c2ccc(C(=O)C3CC3)cn2)c(C)cc1C(N)=O`, the fractional viability is 0.244 under setting [1], 0.208 under setting [2], 0.231 under setting [3] and 0.221 under setting [4].

Regarding `CC(C)(CO)C(O)C(=O)NCCC(=O)O` [Calcium D-Panthotenate], the fractional viability by setting is: under setting [1], 0.892; under setting [2], 1.03; under setting [3], 0.583; under setting [4], 0.892.

The molecule `Cc1c(-c2cnccn2)ssc1=S` [Oltipraz] had a fractional viability under setting [1] of 0.804, a fractional viability under setting [2] of 0.973, a fractional viability under setting [3] of 0.806 and a fractional viability under setting [4] of 0.762.

Take `Cc1cccc(CC(=O)N2CCc3c2ccc(-c2cn(C)c4ncnc(N)c24)c3F)n1`: the fractional viability was 0.959 under setting [1], 0.983 under setting [2], 0.848 under setting [3] and 0.955 under setting [4].

For the molecule `COc1ccc(-n2c(SCCCN3C(=O)c4cccc5cccc(c45)C3=O)nnc2-c2ccncc2)cc1`, the fractional viability worked out at 0.722 under setting [1], 0.945 under setting [2], 0.895 under setting [3] and 0.738 under setting [4].
